# Test results from the supplement of paper PMC4166925.
# ± gives the standard deviation of the averaged measurements. In all, about 33,000 sequences were measured (“E-score (dimensionless, -0.5 to 0.5)”: median about -0.049, highest 2% from about 0.37 on). Some of the results follow.
# Test system: T1, PmTbr T-box DNA-binding domain (GST fusion)
# T1 sequence: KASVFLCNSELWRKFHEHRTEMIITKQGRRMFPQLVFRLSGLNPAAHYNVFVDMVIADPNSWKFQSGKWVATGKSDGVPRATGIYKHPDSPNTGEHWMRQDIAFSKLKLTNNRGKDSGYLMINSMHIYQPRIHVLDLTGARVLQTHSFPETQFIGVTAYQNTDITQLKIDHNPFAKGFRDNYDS
# Test: PBM E-score of 8-mer (E-score (dimensionless, -0.5 to 0.5)); Tbr is Tbrain of the sea star Patiria miniata (Pm) or the sea urchin Strongylocentrotus purpuratus (Sp); higher = stronger binding preference; most listed sequences are background and not binding sites
# Conditions: the construct has about 5 more residues each side
# Method in brief: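 Each ungapped 8-mer received an enrichment E-score from the Universal PBM Analysis Suite, averaged over duplicate arrays. The proteins were Tbr T-box DNA-binding domains, covering the whole T-box plus about five flanking residues, fused to GST and expressed in BL21 E. coli at 20 °C before glutathione affinity purification. Universal Agilent oligonucleotide arrays were made double-stranded by primer extension and incubated with 200 nM protein in PBS (pH 7.5). The arrays were then scanned and quantified, and every 8-mer was scored from probe intensities.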
row,Sequence,PBM E-score of 8-mer
1,ATTCTCAA,0.115 ± 0.051
2,GCAGTTCC,-0.0984 ± 0.0049
3,AGTACATA,-0.197 ± 0.053
4,ACTCAGTG,-0.0184 ± 0.018
5,CCTCGTCA,0.256 ± 0.069
6,CTAGTTGA,-0.0529 ± 0.016
7,CCCTGTAA,0.166 ± 0.038
8,AAAAAGCT,-0.0814 ± 0.012
9,CTCACTAC,0.0944 ± 0.039
10,AATTAGAG,-0.268 ± 0.0049
11,TATGCAAA,-0.152 ± 0.035
12,GGCCGACC,-0.27 ± 0.011
13,AGAATATA,-0.123 ± 0.027
14,AACGGGCA,-0.0173 ± 0.043
15,AATGCATC,0.0233 ± 0.047
16,AAATGCTA,-0.128 ± 0.052
17,ACGATTCA,-0.0344 ± 0.0071
18,AGGGTAAT,-0.215 ± 0.023
19,CGCTCCCC,0.0654 ± 0.012
20,TCCTCAAA,-0.211 ± 0.018
21,AGTGCACA,0.0476 ± 0.052
22,AATATGGC,-0.033 ± 0.04

row,Sequence,PBM E-score of 8-mer
1,AGCCTGTC,-0.00536 ± 0.037
2,CAAAATGC,-0.128 ± 0.053
3,CCATGAGA,-0.145 ± 0.059
4,GCTATGTA,-0.0444 ± 0.035
5,AGGGTTAT,-0.0299 ± 0.011
6,ATCAGTGG,-0.0659 ± 0.059
7,GTGGGATA,0.203 ± 0.03
8,ACATTGGG,0.0368 ± 0.014
9,ACCAGGCA,-0.00462 ± 0.024
10,ATTCTACA,-0.0686 ± 0.048
11,AGAGGGCC,-0.265 ± 0.0075
12,AAATTGGG,-0.0203 ± 0.044
13,TACTTAGA,0.0947 ± 0.0054
14,CTAACGCC,0.355 ± 0.018
15,AGCTCTCC,-0.169 ± 0.029
16,CTTTTATA,-0.0188 ± 0.06
17,TACAACCA,-0.114 ± 0.086
18,ACGAATCC,-0.133 ± 0.064
19,CCTTACAG,-0.0186 ± 0.048
20,CCGCAGTC,-0.24 ± 0.05
21,TTGATCAA,-0.0605 ± 0.058
22,ACGGACGA,-0.246 ± 0.066

row,Sequence,PBM E-score of 8-mer
1,GTTGCGGA,-0.0911 ± 0.023
2,CAGTAACA,0.0951 ± 0.01
3,CCAAGCCC,-0.214 ± 0.048
4,AGCATCTG,0.0114 ± 0.12
5,ATGTTTTA,-0.132 ± 0.033
6,TAACCTGA,-0.102 ± 0.058
7,AGAGAGCC,-0.245 ± 0.015
8,CCACGGTA,-0.141 ± 0.005
9,ACGCGCTG,0.24 ± 0.029
10,GTCACCAA,0.198 ± 0.035
11,AATGGGGA,-0.2784 ± 0.0015
12,TGGGGGAA,-0.199 ± 0.014
13,GACACAAC,0.256 ± 0.013
14,AAACAGTA,-0.114 ± 0.014
15,GCATATGA,0.0468 ± 0.048
16,CGAGCCTA,-0.0651 ± 0.086
17,AATGGGCG,0.0767 ± 0.0051
18,AAGAGTTA,-0.112 ± 0.022
19,CCTTTAGC,0.195 ± 0.063
20,CATACCGC,0.00102 ± 0.04
21,AGCTCGTG,0.111 ± 0.0061
22,GCCTCCAC,-0.112 ± 0.029

row,Sequence,PBM E-score of 8-mer
1,AAACGTTT,-0.271 ± 0.12
2,CTGCACGA,-0.112 ± 0.017
3,ACCGATCC,0.0264 ± 0.04
4,GAGGAGAC,0.00924 ± 0.026
5,CTGTGCCC,-0.118 ± 0.013
6,AGTGTTCA,0.179 ± 0.031
7,ACCCGTCC,-0.164 ± 0.017
8,GAAACCAA,-0.0337 ± 0.053
9,ACGTGCTG,0.165 ± 0.034
10,AAGCGCGC,0.106 ± 0.015
11,TCCTAGAA,-0.0822 ± 0.13
12,ATAGGGCC,-0.194 ± 0.043
13,TCCGGGCA,-0.052 ± 0.032
14,CCGAGTTC,-0.2711 ± 0.00051
15,CGATACGC,-0.00908 ± 0.043
16,CCTCGATC,0.0184 ± 0.014
17,CACCAATC,0.26 ± 0.023
18,ACGAGTCT,-0.145 ± 0.05
19,CTGGCAGA,-0.0491 ± 0.083
20,CTACGTCA,-0.0358 ± 0.0037
21,CACGTTAG,0.317 ± 0.0066
22,ACAGCGGT,0.0264 ± 0.093

row,Sequence,PBM E-score of 8-mer
1,GGCGTTAA,0.377 ± 0.024
2,GTCAACTA,0.0717 ± 0.051
3,ATCACGGA,-0.0356 ± 0.0075
4,ACAGAGCC,-0.0935 ± 0.015
5,CCGTGTCG,0.144 ± 0.045
6,ACTCGATA,0.145 ± 0.037
7,CATCGAAA,-0.147 ± 0.092
8,AATGTCGG,-0.0392 ± 0.026
9,CCCCTATA,-0.132 ± 0.02
10,AATACGCG,0.069 ± 0.078
11,TATCATCA,-0.0199 ± 0.08
12,GAATCAGC,-0.184 ± 0.045
13,CCAAAGCG,0.105 ± 0.0049
14,ATATTGGG,-0.224 ± 0.017
15,AGTTAACT,-0.159 ± 0.025
16,CATGTCAA,-0.00945 ± 0.065
17,AATGACCC,-0.141 ± 0.071
18,ATCTCAAC,0.0437 ± 0.036
19,CCCTATTA,-0.153 ± 0.013
20,ACAGGGTG,0.339 ± 0.042
21,AGAGCGCG,0.147 ± 0.045
